“And” between values parts separate entries of the source, which are not always exact repeats. Equal entries are not always repeated. Structures can show the parent of a compound that is named as a salt. ± gives the standard deviation of the averaged measurements. The full ranking holds about 3,100 compounds; the median of “mean cytoplasmic OPP incorporation (global translation) relative to DMSO” is about 100, and the lowest 2% start at about 56. The list shows a part of the results.
These compounds were tested on U2OS (assay: mean cytoplasmic OPP incorporation (global translation) relative to DMSO (% of DMSO); higher = more protein synthesis). Settings: 10 µM; 24 h.
Description: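 Primary image-based screen in U2OS cells: compounds at 10 uM for 24 h, then a 1 h o-propargyl-puromycin (OPP) pulse, click labelling, and high-throughput microscopy. Mean cytoplasmic OPP intensity and nuclei count were normalised to DMSO wells within each plate (DMSO = 100) and averaged over triplicate plates.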
For `Cn1sc(=O)n(Cc2ccccc2)c1=O`, the “mean cytoplasmic OPP incorporation” value was 105.
With `COc1cc2c(cc1Cc1cccc(Cl)c1F)c(=O)c(C(=O)O)cn2[C@H](CO)C(C)C` [Elvitegravir (GS-9137)] the “mean cytoplasmic OPP incorporation” value was 98.8.
In the case of `COc1ccc2cc3[n+](cc2c1OC)CCc1cc2c(cc1-3)OCO2` [Berberine HCl], the “mean cytoplasmic OPP incorporation” value is reported as 106.
For `CCCC[C@@H](C=O)NC(=O)OC(C)(C)C`, the “mean cytoplasmic OPP incorporation” value was 101.
`Nc1ncnc2c1ncn2[C@@H]1O[C@H](CO)C[C@H]1O` [Cordycepin] was tested, and the “mean cytoplasmic OPP incorporation” value was 102.
With `COc1cc(C2Oc3ccc(C4Oc5cc(O)cc(O)c5C(=O)C4O)cc3OC2CO)ccc1O` (stereo not drawn) [Silymarin (Silybin B)] the “mean cytoplasmic OPP incorporation” value was 105.
With `COc1ccc2c(c1)c(CC(=O)OCC(=O)O)c(C)n2C(=O)c1ccc(Cl)cc1` [Acemetacin] the “mean cytoplasmic OPP incorporation” value was 94.1.
`O=C1C(O)=C(O)C(=O)C(O)=C1O` [Tetrahydroxy-1,4-quinone monohydrate] was tested, and the “mean cytoplasmic OPP incorporation” value was 97.8.
`Cc1nccn1CC1CCc2c(c3ccccc3n2C)C1=O` (stereo not drawn) [Ondansetron Hydrochloride] was tested, and the “mean cytoplasmic OPP incorporation” value was 87.4.
With `CC(=O)NC[C@H]1CN(c2ccc(N3CCOCC3)c(F)c2)C(=O)O1` [Linezolid] the “mean cytoplasmic OPP incorporation” value was 106.
For `CCCc1nc(C(C)(C)O)c(C(=O)OCc2oc(=O)oc2C)n1Cc1ccc(-c2ccccc2-c2nnn[nH]2)cc1` [Olmesartan medoxomil (Benicar)], the “mean cytoplasmic OPP incorporation” value was 102.
With `Cn1c(=O)c2c(ncn2CC(O)CO)n(C)c1=O` (stereo not drawn) [Diprophylline] the “mean cytoplasmic OPP incorporation” value was 95.3.
With `NC(=O)c1cccnc1` [Nicotinamide] the “mean cytoplasmic OPP incorporation” value was 101 ± 6.7.
In the case of `CCC(C)(CN(C)C)OC(=O)c1ccccc1` (stereo not drawn) [Amyleine hydrochloride], the “mean cytoplasmic OPP incorporation” value is reported as 106.
With `CC(=C(CCO)SSCC1CCCO1)N(C=O)Cc1cnc(C)nc1N` (stereo in doubt) [Fursultiamine Hydrochloride] the “mean cytoplasmic OPP incorporation” value was 105.
In the case of `C=C(NC(=O)C(=C)NC(=O)c1csc(C2=N[C@@H]3c4csc(n4)[C@H]4NC(=O)c5csc(n5)[C@H]([C@](C)(O)[C@@H](C)O)NC(=O)[C@H]5CSC(=N5)/C(=C/C)NC(=O)[C@H]([C@@H](C)O)NC(=O)c5csc(n5)[C@]3(CC2)NC(=O)[C@H](C)NC(=O)C(=C)NC(=O)[C@H](C)NC(=O)[C@H]([C@@H](C)CC)N[C@@H]2C=Cc3c([C@H](C)O)cc(nc3[C@H]2O)C(=O)O[C@@H]4C)n1)C(N)=O` [Thiostrepton], the “mean cytoplasmic OPP incorporation” value is reported as 73.3.
In the case of `CNC1(C)C2CCC(C2)C1(C)C` (stereo not drawn) [Mecamylamine hydrochloride], the “mean cytoplasmic OPP incorporation” value is reported as 113.
`Cc1c(Cn2c(C)nc3c(C(=O)O)cc(N4CCOCC4)cc32)cccc1C(F)(F)F` was tested, and the “mean cytoplasmic OPP incorporation” value was 101 ± 4.
For `Nc1nc(Nc2ccc(S(N)(=O)=O)cc2)nn1C(=O)c1c(F)cccc1F`, the “mean cytoplasmic OPP incorporation” value was 50.1.
In the case of `CC(C)c1onc(-c2c(Cl)cccc2Cl)c1COc1ccc(/C=C/c2cccc(C(=O)O)c2)c(Cl)c1`, the “mean cytoplasmic OPP incorporation” value is reported as 104 and 101.
`C[C@@]1(O)[C@H](O)[C@@H](CO)O[C@H]1n1cnc2c(NC3CCCC3)nc(Cl)nc21` was tested, and the “mean cytoplasmic OPP incorporation” value was 92.
For `C=CCN1CCCC1CNC(=O)c1cc2nn[nH]c2cc1OC` (stereo not drawn) [Alizapride HCl], the “mean cytoplasmic OPP incorporation” value was 98.4.
In the case of `NC(=O)[C@@H](CCC(F)(F)F)N(Cc1ccc(-c2ncon2)cc1F)S(=O)(=O)c1ccc(Cl)cc1`, the “mean cytoplasmic OPP incorporation” value is reported as 107.
For `COc1ccc(CNCc2cccc3ccccc23)cc1`, the “mean cytoplasmic OPP incorporation” value was 97.7.
With `Cc1[nH]c(/C=C2\C(=O)Nc3ccc(S(=O)(=O)Cc4c(Cl)cccc4Cl)cc32)c(C)c1C(=O)N1CCC[C@@H]1CN1CCCC1` the “mean cytoplasmic OPP incorporation” value was 102 and 94.5.
`N#CC(=C(/N)Sc1ccccc1N)/C(C#N)=C(\N)Sc1ccccc1N` was tested, and the “mean cytoplasmic OPP incorporation” value was 95.8.
With `CC1=C(C(=O)O)N2C(=O)[C@@H](NC(=O)[C@H](N)c3ccc(O)cc3)[C@H]2SC1` [Cefadroxil] the “mean cytoplasmic OPP incorporation” value was 104.
`CC(C)(Oc1ccc(C2CC2(Cl)Cl)cc1)C(=O)O` (stereo not drawn) [Ciprofibrate] was tested, and the “mean cytoplasmic OPP incorporation” value was 83.7.
In the case of `CN(CCOc1ccc(-c2ccc3c(c2)OCO3)cc1C(C)(C)C)CC(=O)O`, the “mean cytoplasmic OPP incorporation” value is reported as 99.
`N[C@@H](CSS(=O)(=O)O)C(=O)O` [S-Sulfo-L-cysteine sodium salt] was tested, and the “mean cytoplasmic OPP incorporation” value was 101.
With `COc1cc2ncnc(Nc3ccc(Oc4ccccc4)cc3)c2cc1OC` the “mean cytoplasmic OPP incorporation” value was 93.5.
In the case of `CC1CCN(CCCC(=O)c2ccc(F)cc2)CC1` [Melperone hydrochloride], the “mean cytoplasmic OPP incorporation” value is reported as 98.7.
`Nc1ccc(S(N)(=O)=O)cc1` [Sulfanilamide] was tested, and the “mean cytoplasmic OPP incorporation” value was 105.
In the case of `CCN1CCC[C@H]1CNC(=O)c1cc(S(N)(=O)=O)ccc1OC` [Levosulpiride (Levogastrol)], the “mean cytoplasmic OPP incorporation” value is reported as 106.
For `CCN1CCC[C@H]1CNC(=O)c1cc(S(N)(=O)=O)ccc1OC` [(S)-(-)-Sulpiride], the “mean cytoplasmic OPP incorporation” value was 96.4.
With `Clc1ccc(-c2nc3sccn3c2/C=N/OCc2ccc(Cl)c(Cl)c2)cc1` the “mean cytoplasmic OPP incorporation” value was 102.1 ± 0.9.
`O=C1C(Cl)=C(NCCN2CCOCC2)C(=O)c2ncccc21` was tested, and the “mean cytoplasmic OPP incorporation” value was 31.
In the case of `CCOc1nc2cccc(C(=O)OC(C)OC(=O)OC3CCCCC3)c2n1Cc1ccc(-c2ccccc2-c2nn[nH]n2)cc1` (stereo not drawn) [Candesartan cilexetil (Atacand)], the “mean cytoplasmic OPP incorporation” value is reported as 118.
With `CC(O)(C(=O)Nc1ccc(S(=O)(=O)c2ccccc2)cc1)C(F)(F)F` (stereo not drawn) the “mean cytoplasmic OPP incorporation” value was 95.4 and 110.
With `C1CCC2(CC1)CCNCC2` [4,4-Pentamethylenepiperidine hydrochloride] the “mean cytoplasmic OPP incorporation” value was 94.9.
With `CC1=C(C(=O)OCCN(Cc2ccccc2)c2ccccc2)C(c2cccc([N+](=O)[O-])c2)C(P2(=O)OCC(C)(C)CO2)=C(C)N1` (stereo not drawn) [Efonidipine hydrochloride monoethanolate] the “mean cytoplasmic OPP incorporation” value was 112.
In the case of `CC(CCc1ccc(O)cc1)NCCc1ccc(O)c(O)c1` (stereo not drawn) [Dobutamine hydrochloride], the “mean cytoplasmic OPP incorporation” value is reported as 97.4 ± 5.5.
With `CCCNS(=O)(=O)Nc1ncnc(OCCOc2ncc(Br)cn2)c1-c1ccc(Br)cc1` [Macitentan] the “mean cytoplasmic OPP incorporation” value was 89.
For `CC[C@]12CCCN3CCc4c(n(c5ccccc45)[C@@](O)(C(=O)OC)C1)[C@@H]32` [Vincamine], the “mean cytoplasmic OPP incorporation” value was 102.
For `CSc1ccc(/C=C2/C(C)=C(CC(=O)O)c3cc(F)ccc32)cc1` [Sulindac Sulfide], the “mean cytoplasmic OPP incorporation” value was 104.
With `CCC(C)(C)c1ccc(CC(C)CN2C[C@@H](C)O[C@@H](C)C2)cc1` (stereo partly drawn) [Amorolfine HCl] the “mean cytoplasmic OPP incorporation” value was 104.
In the case of `CCOC(=O)c1ccc(C#Cc2ccc3c(c2)C(C)(C)CCS3)nc1` [Tazarotene (Avage)], the “mean cytoplasmic OPP incorporation” value is reported as 103.
For `CC(C)(C)C#Cc1cc(N(C(=O)[C@H]2CC[C@H](C)CC2)[C@H]2CC[C@H](O)CC2)c(C(=O)O)s1`, the “mean cytoplasmic OPP incorporation” value was 106.
